This is an account of results in the supplement of paper PMC4604168 (melanoma cell lines).

SMILES strings stand for the structures. This is one part of the list. Many values rest on one well or one pass, so single values are uncertain.
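Further: cells treated in 1,536-well plates, then fixed and DAPI-stained, with nuclei counted from automated high-throughput microscope images.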

The assay relates to WM1716. Description: cell count relative to DMSO control; melanoma cells; higher = more viable cells. The following applies: library dose: standard library concentration; 72 h.
`Cc1cc(Nc2cc(N3CCN(C)CC3)nc(Sc3ccc(NC(=O)C4CC4)cc3)n2)n[nH]1` [Tozasertib] + O=C(CCCCCCC(=O)Nc1ccccc1)NO [vorinostat] (first compound 0.03 µM, partner dose 0.4 µM) came in with a cell count of 66.9%.

With `Cc1cc(Nc2cc(N3CCN(C)CC3)nc(Sc3ccc(NC(=O)C4CC4)cc3)n2)n[nH]1` [Tozasertib] + Nc1nc(F)nc2c1ncn2[C@@H]1O[C@H](CO)[C@@H](O)[C@@H]1O [fludarabine] (first compound 0.03 µM, partner dose 1 µM), the cell count turned out to be 74.3%.

With `N#CC[C@H](C1CCCC1)n1cc(-c2ncnc3[nH]ccc23)cn1` [ruxolitinib] + C=CCNC1=C2C[C@@H](C)C[C@H](OC)[C@H](O)[C@@H](C)/C=C(\C)[C@H](OC(N)=O)[C@@H](OC)/C=C\C=C(/C)C(=O)NC(=CC1=O)C2=O [Tanespimycin] (first compound 5 µM, partner dose 0.01 µM), the cell count was found to be 73%.

Consider `N#CC[C@H](C1CCCC1)n1cc(-c2ncnc3[nH]ccc23)cn1` [ruxolitinib] + CO[C@@H]1[C@H](N(C)C(=O)c2ccccc2)C[C@H]2O[C@]1(C)n1c3ccccc3c3c4c(c5c6ccccc6n2c5c31)C(=O)NC4 [Midostaurin] (first compound 5 µM, partner dose 0.4 µM), for which the cell count amounted to 38.8%.

The compound `Cc1cc(Nc2cc(N3CCN(C)CC3)nc(Sc3ccc(NC(=O)C4CC4)cc3)n2)n[nH]1` [Tozasertib] + COc1cc2c(Oc3ccc4[nH]c(C)cc4c3F)ncnc2cc1OCCCN1CCCC1 [cediranib] (first compound 0.03 µM, partner dose 2 µM) registered a cell count of 73.8%.

For `N#CC[C@H](C1CCCC1)n1cc(-c2ncnc3[nH]ccc23)cn1` [ruxolitinib] + O=C(/C=C/c1cccnc1)NCCCCC1CCN(C(=O)c2ccccc2)CC1 [FK866] (first compound 5 µM, partner dose 0.05 µM), the cell count is 56%.

Consider `CC[C@]1(O)C[C@H]2CN(CCc3c([nH]c4ccccc34)[C@@](C(=O)OC)(c3cc4c(cc3OC)N(C=O)[C@H]3[C@@](O)(C(=O)OC)[C@H](OC(C)=O)[C@]5(CC)C=CCN6CC[C@]43[C@@H]65)C2)C1` [vincristine] + COc1cc(Nc2ncc(F)c(Nc3ccc4c(n3)NC(=O)C(C)(C)O4)n2)cc(OC)c1OC [Tamatinib] (first compound 0.0005 µM, partner dose 2 µM), for which the cell count was 23.8%.

In the case of `N#CC[C@H](C1CCCC1)n1cc(-c2ncnc3[nH]ccc23)cn1` [ruxolitinib] + CC1(C)NC(=O)N(c2ccc([N+](=O)[O-])c(C(F)(F)F)c2)C1=O [nilutamide] (first compound 5 µM, partner dose 5 µM), the cell count stood at 70.3%.

In turn, `CC[C@]1(O)C[C@H]2CN(CCc3c([nH]c4ccccc34)[C@@](C(=O)OC)(c3cc4c(cc3OC)N(C=O)[C@H]3[C@@](O)(C(=O)OC)[C@H](OC(C)=O)[C@]5(CC)C=CCN6CC[C@]43[C@@H]65)C2)C1` [vincristine] + CC1(C)NC(=O)N(c2ccc([N+](=O)[O-])c(C(F)(F)F)c2)C1=O [nilutamide] (first compound 0.0005 µM, partner dose 5 µM) displayed a cell count of 32.2%.

For `N#CC[C@H](C1CCCC1)n1cc(-c2ncnc3[nH]ccc23)cn1` [ruxolitinib] + CC(C)C[C@H](NC(=O)[C@H](Cc1ccccc1)NC(=O)c1cnccn1)B(O)O [Bortezomib] (first compound 5 µM, partner dose 0.005 µM), the cell count is 20.9%.

`CC[C@]1(O)C[C@H]2CN(CCc3c([nH]c4ccccc34)[C@@](C(=O)OC)(c3cc4c(cc3OC)N(C=O)[C@H]3[C@@](O)(C(=O)OC)[C@H](OC(C)=O)[C@]5(CC)C=CCN6CC[C@]43[C@@H]65)C2)C1` [vincristine] + COC(=O)c1sccc1S(=O)(=O)Nc1ccc(Nc2ccccc2)cc1OC [GSK0660] (first compound 0.0005 µM, partner dose 5 µM): the cell count came out at 30.7%.

Consider `N#CC[C@H](C1CCCC1)n1cc(-c2ncnc3[nH]ccc23)cn1` [ruxolitinib] + CS(=O)(=O)CCNCc1ccc(-c2ccc3ncnc(Nc4ccc(OCc5cccc(F)c5)c(Cl)c4)c3c2)o1 [lapatinib] (first compound 5 µM, partner dose 4 µM), for which the cell count was 74.7%.
